The other results are listed elsewhere or left out. Sequences were assembled here from the parent chain. Inactive controls read about 0.05.
B1: TEV protease; numbered along this chain (parent)
chain: MGESLFKGPRDYNPISSSICHLTNESDGHTTSLYGIGFGPFIITNKHLFRRNNGTLVVQSLHGVFKVKDTTTLQQHLVDGRDMIIIRMPKDFPPFPQKLKFREPQREERICLVTTNFQTKSMSSMVSDTSCTFPSGDGIFWKHWIQTKDGQCGSPLVSTRDGFIVGIHSASNFTNTNNYFTSVPKNFMELLTNQEAQQWVSGWRLNADSVLWGGHKVFMVKPEEPFQPVKEATQL

Variants of: B1
Test: raw area under fraction-flipped curve 0-4 h after induction (AUC4h, not background-subtracted), DNA-recorder readout of cleavage of the substrate (dimensionless); higher = more cleavage of the substrate by the protease variant
Settings: temperature: 34 °C; time window: 0-4 h after rhamnose induction
Procedure: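 In vivo DNA recorder in E. coli TOP10(DE3) ΔrhaA at 34 °C. Each TEVp single-site mutant (parent TEVp 0) is paired with a single-site variant of the 7-mer TEVs (canonical ENLYFQ|S). The substrate sits between flexible linkers in a Bxb1-sfGFP-TEVs-SsrA fusion, so cleavage stabilises Bxb1 and speeds flipping of a recombination array, read by NGS. The value is the raw area under the fraction-flipped curve over 0-4 h after rhamnose induction (AUC4h), with ≥20 reads per time point. It is not background-subtracted; inactive controls average about 0.047.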
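Further: Bxb1 expression induced with 0.2% (w/v) L-rhamnose at OD600 near 0.5, cultures sampled hourly, flipped fraction per protease–substrate barcode pair counted by paired-end Illumina sequencing.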

| Variant | area with substrate ENLAFQS | area with substrate ENLCFQS | area with substrate ENLDFQS | area with substrate ENLEFQS | area with substrate ENLFFQS | area with substrate ENLGFQS | area with substrate ENLHFQS | area with substrate ENLIFQS | area with substrate ENLKFQS | area with substrate ENLLFQS | area with substrate ENLNFQS | area with substrate ENLPFQS | area with substrate ENLQFQS | area with substrate ENLRFQS | area with substrate ENLSFQS | area with substrate ENLVFQS | area with substrate ENLMFQS | area with substrate ENLWFQS |
| --- | --- | --- | --- | --- | --- | --- | --- | --- | --- | --- | --- | --- | --- | --- | --- | --- | --- | --- |
| MGESLFKGPRDYNPISSSICHLTNESDGHTTSLYGIGFGPFIITNKHLFRRNNGTLVVQSLHGVFKVKDTTTLQQHLVDGRDMIIIRMPKDFPPFPQKLKFREPQRECRICLVTTNFQTKSMSSMVSDTSCTFPSGDGIFWKHWIQTKDGQCGSPLVSTRDGFIVGIHSASNFTNTNNYFTSVPKNFMELLTNQEAQQWVSGWRLNADSVLWGGHKVFMVKPEEPFQPVKEATQL [E108C] | 0.0523 | 0.0671 | 0.062 | 0.0343 | 0.0624 | 0.0605 | 0.0713 | 0.0812 | 0.0672 | 0.0642 | 0.0621 | 0.0482 | 0.0664 | 0.0581 | 0.0567 | 0.0664 |  |  |
| MGESLFKGPRDYNPISSSICHLTNESDGHTTSLYGIGFGPFIITNKHLFRRNNGTLVVQSLHGVFKVKDTTTLQQHLVDGRDMIIIRMPKDFPPFPQKLKFREPQRELRICLVTTNFQTKSMSSMVSDTSCTFPSGDGIFWKHWIQTKDGQCGSPLVSTRDGFIVGIHSASNFTNTNNYFTSVPKNFMELLTNQEAQQWVSGWRLNADSVLWGGHKVFMVKPEEPFQPVKEATQL [E108L] | 0.0647 |  | 0.098 |  | 0.0647 |  |  | 0.057 | 0.0486 | 0.0696 |  |  | 0.0542 |  |  | 0.0642 |  |  |
| MGESLFKGPRDYNPISSSICHLTNESDGHTTSLYGIGFGPFIITNKHLFRRNNGTLVVQSLHGVFKVKDTTTLQQHLVDGRDMIIIRMPKDFPPFPQKLKFREPQRCERICLVTTNFQTKSMSSMVSDTSCTFPSGDGIFWKHWIQTKDGQCGSPLVSTRDGFIVGIHSASNFTNTNNYFTSVPKNFMELLTNQEAQQWVSGWRLNADSVLWGGHKVFMVKPEEPFQPVKEATQL [E107C] | 0.0653 |  | 0.0669 |  | 0.0822 | 0.076 | 0.0749 | 0.0707 |  | 0.069 | 0.08 |  |  |  | 0.103 |  | 0.0746 |  |
| MGESLFKGPRDYNPISSSICHLTNESDGHTTSLYGIGFGPFIITNKHLFRRNNGTLVVQSLHGVFKVKDTTTLQQHLVDGRDMIIIRMPKDFPPFPQKLKFREQQREERICLVTTNFQTKSMSSMVSDTSCTFPSGDGIFWKHWIQTKDGQCGSPLVSTRDGFIVGIHSASNFTNTNNYFTSVPKNFMELLTNQEAQQWVSGWRLNADSVLWGGHKVFMVKPEEPFQPVKEATQL [P104Q] | 0.0553 |  | 0.0527 | 0.0411 | 0.0701 |  |  |  |  |  | 0.0472 |  | 0.0128 | 0.0402 | 0.0459 |  |  | 0.0517 |
| MGESLFKGPRDYNPISSSICHLTNESDGHTTSLYGIGFGPFIITNKHLFRRNNGTLVVQSLHGVFKVKDTTTLQQHLVDGRDMIIIRMPKDFPPFPQKLKFREEQREERICLVTTNFQTKSMSSMVSDTSCTFPSGDGIFWKHWIQTKDGQCGSPLVSTRDGFIVGIHSASNFTNTNNYFTSVPKNFMELLTNQEAQQWVSGWRLNADSVLWGGHKVFMVKPEEPFQPVKEATQL [P104E] | 0.0682 | 0.0464 | 0.0626 | 0.0492 | 0.0497 |  | 0.0484 | 0.0643 | 0.115 |  | 0.0522 | 0.0468 |  | 0.0517 | 0.0607 |  | 0.0267 |  |
| MGESLFKGPRDYNPISSSICHLTNESDGHTTSLYGIGFGPFIITNKHLFRRNNGTLVVQSLHGVFKVKDTTTLQQHLVDGRDMIIIRMPKDFPPFPQKLKFREPQREERICPVTTNFQTKSMSSMVSDTSCTFPSGDGIFWKHWIQTKDGQCGSPLVSTRDGFIVGIHSASNFTNTNNYFTSVPKNFMELLTNQEAQQWVSGWRLNADSVLWGGHKVFMVKPEEPFQPVKEATQL [L112P] | 0.0439 | 0.0543 | 0.0536 | 0.0547 | 0.0833 | 0.0599 | 0.0599 | 0.032 | 0.0602 | 0.052 | 0.0599 | 0.0561 | 0.0561 | 0.0546 | 0.0585 | 0.0501 | 0.0632 |  |
| MGESLFKGPRDYNPISSSICHLTNESDGHTTSLYGIGFGPFIITNKHLFRRNNGTLVVQSLHGVFKVKDTTTLQQHLVDGRDMIIIRMPKDFPPFPQKLKFREPQREERICLVTTMFQTKSMSSMVSDTSCTFPSGDGIFWKHWIQTKDGQCGSPLVSTRDGFIVGIHSASNFTNTNNYFTSVPKNFMELLTNQEAQQWVSGWRLNADSVLWGGHKVFMVKPEEPFQPVKEATQL [N116M] | 0.0597 | 0.0817 | 0.0786 |  |  |  | 0.0732 | 0.116 |  |  | 0.0841 |  |  |  |  |  |  |  |
| MGESLFKGPRDYNPISSSICHLTNESDGHTTSLYGIGFGPFIITNKHLFRRNNGTLVVQSLHGVFKVKDTTTLQQHLVDGRDMIIIRMPKDFPPFPQKLKFREPQREERICLVTSNFQTKSMSSMVSDTSCTFPSGDGIFWKHWIQTKDGQCGSPLVSTRDGFIVGIHSASNFTNTNNYFTSVPKNFMELLTNQEAQQWVSGWRLNADSVLWGGHKVFMVKPEEPFQPVKEATQL [T115S] | 0.0732 | 0.0852 | 0.0549 | 0.0445 | 0.0721 |  | 0.0978 | 0.0451 | 0.0878 | 0.0559 | 0.0715 | 0.053 | 0.0584 | 0.0771 | 0.0719 |  |  | 0.0891 |
| MGESLFKGPRDYNPISSSICHLTNESDGHTTSLYGIGFGPFIITNKHLFRRNNGTLVVQSLHGVFKVKDTTTLQQHLVDGRDMIIIRMPKDFPPFPQKLKFREPQREERICLVTDNFQTKSMSSMVSDTSCTFPSGDGIFWKHWIQTKDGQCGSPLVSTRDGFIVGIHSASNFTNTNNYFTSVPKNFMELLTNQEAQQWVSGWRLNADSVLWGGHKVFMVKPEEPFQPVKEATQL [T115D] | 0.061 |  | 0.0522 |  | 0.0591 | 0.0653 | 0.0657 |  | 0.0735 | 0.074 | 0.102 |  |  | 0.0731 |  |  |  | 0.0539 |
